The chains are these.
T1: RBFOX1 RRM (Homo sapiens, UniProt Q9NWB1 109-208)
T1 sequence: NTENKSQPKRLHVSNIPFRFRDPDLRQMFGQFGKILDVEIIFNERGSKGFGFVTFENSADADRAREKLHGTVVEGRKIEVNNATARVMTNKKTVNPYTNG

B1: UCGAGGG (DNA:RNA)
RNA: GGGAGACCGGAAUUCAGAUUGUCCUCGAGGGUUAAAUCCCGUCGUAGCCACCA
DNA 1: CAATCTGAATTCCGGTCTCCC
DNA 2: TGGTGGCTACGACGGGATT
B2: AAUAGGC (DNA:RNA)
RNA: B1 RNA with U25A, C26A, G27U, G31C
DNA 1: CAATCTGAATTCCGGTCTCCC
DNA 2: TGGTGGCTACGACGGGATT
B3: CUGCCGG (DNA:RNA)
RNA: B1 RNA with U25C, C26U, A28C, G29C
DNA 1: CAATCTGAATTCCGGTCTCCC
DNA 2: TGGTGGCTACGACGGGATT
B4: AUGGACG (DNA:RNA)
RNA: B1 RNA with U25A, C26U, A28G, G29A, G30C
DNA 1: CAATCTGAATTCCGGTCTCCC
DNA 2: TGGTGGCTACGACGGGATT
B5: UUCACGC (DNA:RNA)
RNA: B1 RNA with C26U, G27C, G29C, G31C
DNA 1: CAATCTGAATTCCGGTCTCCC
DNA 2: TGGTGGCTACGACGGGATT
B6: ACGGCUG (DNA:RNA)
RNA: B1 RNA with U25A, A28G, G29C, G30U
DNA 1: CAATCTGAATTCCGGTCTCCC
DNA 2: TGGTGGCTACGACGGGATT
B7: UGUCGUU (DNA:RNA)
RNA: B1 RNA with C26G, G27U, A28C, G30U, G31U
DNA 1: CAATCTGAATTCCGGTCTCCC
DNA 2: TGGTGGCTACGACGGGATT
B8: ACUGCCG (DNA:RNA)
RNA: B1 RNA with U25A, G27U, A28G, G29C, G30C
DNA 1: CAATCTGAATTCCGGTCTCCC
DNA 2: TGGTGGCTACGACGGGATT
B9: UGGACUU (DNA:RNA)
RNA: B1 RNA with C26G, G29C, G30U, G31U
DNA 1: CAATCTGAATTCCGGTCTCCC
DNA 2: TGGTGGCTACGACGGGATT
B10: GACAAGG (DNA:RNA)
RNA: B1 RNA with U25G, C26A, G27C, G29A
DNA 1: CAATCTGAATTCCGGTCTCCC
DNA 2: TGGTGGCTACGACGGGATT
B11: CGGCGGG (DNA:RNA)
RNA: B1 RNA with U25C, C26G, A28C
DNA 1: CAATCTGAATTCCGGTCTCCC
DNA 2: TGGTGGCTACGACGGGATT
B12: CGACGGC (DNA:RNA)
RNA: B1 RNA with U25C, C26G, G27A, A28C, G31C
DNA 1: CAATCTGAATTCCGGTCTCCC
DNA 2: TGGTGGCTACGACGGGATT
B13: AAAGUGU (DNA:RNA)
RNA: B1 RNA with U25A, C26A, G27A, A28G, G29U, G31U
DNA 1: CAATCTGAATTCCGGTCTCCC
DNA 2: TGGTGGCTACGACGGGATT
B14: GCCUCGG (DNA:RNA)
RNA: B1 RNA with U25G, G27C, A28U, G29C
DNA 1: CAATCTGAATTCCGGTCTCCC
DNA 2: TGGTGGCTACGACGGGATT
B15: CAGAUUG (DNA:RNA)
RNA: B1 RNA with U25C, C26A, G29U, G30U
DNA 1: CAATCTGAATTCCGGTCTCCC
DNA 2: TGGTGGCTACGACGGGATT
B16: AAAGCCA (DNA:RNA)
RNA: GGGAGACCGGAAUUCAGAUUGUCCAAAGCCAUUAAAUCCCGUCGUAGCCACCA
DNA 1: CAATCTGAATTCCGGTCTCCC
DNA 2: TGGTGGCTACGACGGGATT
B17: GCAAGAG (DNA:RNA)
RNA: B1 RNA with U25G, G27A, G30A
DNA 1: CAATCTGAATTCCGGTCTCCC
DNA 2: TGGTGGCTACGACGGGATT
B18: CAACAAG (DNA:RNA)
RNA: B16 RNA with A25C, G28C, C29A, C30A, A31G
DNA 1: CAATCTGAATTCCGGTCTCCC
DNA 2: TGGTGGCTACGACGGGATT
B19: UUCCACU (DNA:RNA)
RNA: B16 RNA with A25U, A26U, A27C, G28C, C29A, A31U
DNA 1: CAATCTGAATTCCGGTCTCCC
DNA 2: TGGTGGCTACGACGGGATT
B20: AGCGCUC (DNA:RNA)
RNA: B16 RNA with A26G, A27C, C30U, A31C
DNA 1: CAATCTGAATTCCGGTCTCCC
DNA 2: TGGTGGCTACGACGGGATT
B21: CAAUACG (DNA:RNA)
RNA: B16 RNA with A25C, G28U, C29A, A31G
DNA 1: CAATCTGAATTCCGGTCTCCC
DNA 2: TGGTGGCTACGACGGGATT
B22: ACCUGCC (DNA:RNA)
RNA: B16 RNA with A26C, A27C, G28U, C29G, A31C
DNA 1: CAATCTGAATTCCGGTCTCCC
DNA 2: TGGTGGCTACGACGGGATT
B23: GAAGCAU (DNA:RNA)
RNA: B16 RNA with A25G, C30A, A31U
DNA 1: CAATCTGAATTCCGGTCTCCC
DNA 2: TGGTGGCTACGACGGGATT
B24: CACUCUC (DNA:RNA)
RNA: B16 RNA with A25C, A27C, G28U, C30U, A31C
DNA 1: CAATCTGAATTCCGGTCTCCC
DNA 2: TGGTGGCTACGACGGGATT
B25: AUGGUAA (DNA:RNA)
RNA: B16 RNA with A26U, A27G, C29U, C30A
DNA 1: CAATCTGAATTCCGGTCTCCC
DNA 2: TGGTGGCTACGACGGGATT
B26: GCUAGAC (DNA:RNA)
RNA: B1 RNA with U25G, G27U, G30A, G31C
DNA 1: CAATCTGAATTCCGGTCTCCC
DNA 2: TGGTGGCTACGACGGGATT
B27: UACGGUA (DNA:RNA)
RNA: B16 RNA with A25U, A27C, C29G, C30U
DNA 1: CAATCTGAATTCCGGTCTCCC
DNA 2: TGGTGGCTACGACGGGATT
B28: UUUCUUC (DNA:RNA)
RNA: B1 RNA with C26U, G27U, A28C, G29U, G30U, G31C
DNA 1: CAATCTGAATTCCGGTCTCCC
DNA 2: TGGTGGCTACGACGGGATT
B29: GCGGACC (DNA:RNA)
RNA: B16 RNA with A25G, A26C, A27G, C29A, A31C
DNA 1: CAATCTGAATTCCGGTCTCCC
DNA 2: TGGTGGCTACGACGGGATT
B30: UAUACUA (DNA:RNA)
RNA: B16 RNA with A25U, A27U, G28A, C30U
DNA 1: CAATCTGAATTCCGGTCTCCC
DNA 2: TGGTGGCTACGACGGGATT
B31: GAAGCUA (DNA:RNA)
RNA: B16 RNA with A25G, C30U
DNA 1: CAATCTGAATTCCGGTCTCCC
DNA 2: TGGTGGCTACGACGGGATT

Numbering of substitutions follows the chain as printed; changes in the protein carry UniProt numbers. The list shows a part of the results.

This assay concerns the target T1, RBFOX1 RRM. As to the kind of experiment: EMSA; HiTS-Eq, 1 nM pool, 10 min; buffer printed only for the single-RNA assays: 10 mM Tris pH 7.5, 150 mM NaCl, 3.4 mM EDTA, 0.001% NP-40, 30 C. The following applies: tags: His6 N-terminal (pET28a); label: 5' 32P. A digest of the protocol:
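Purified wild-type or mutant RbFox RRM at increasing concentrations was equilibrated with 1 nM of 5′-radiolabelled RNA carrying 7 randomized nucleotides for 10 min in 50 µL. Unbound RNA was separated by 8% native PAGE and sequenced. Relative association constants came from read-count changes of each RNA species compared with the control reaction, normalised to the cognate motif.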
Take B1: the binding signal was 0.0103 KA relative to UGCAUGU.
The figure for B2 is 0.00524 KA relative to UGCAUGU; for B3 it is 0.0156 KA relative to UGCAUGU.
With B4, the binding signal was 0.0115 KA relative to UGCAUGU.
The figure for B5 is 0.0066 KA relative to UGCAUGU; for B6 it is 0.0167 KA relative to UGCAUGU.
The value for B7 was 0.021 KA relative to UGCAUGU.
The figure for B8 is 0.0125 KA relative to UGCAUGU; for B9 it is 0.0249 KA relative to UGCAUGU; for B10 it is 0.0103 KA relative to UGCAUGU.
Consider B11, for which the binding signal is 0.00981 KA relative to UGCAUGU.
The value for B12 was 0.0116 KA relative to UGCAUGU; that for B13 was 0.00643 KA relative to UGCAUGU; that for B14 was 0.0174 KA relative to UGCAUGU.
As for B15, the binding signal was 0.0105 KA relative to UGCAUGU.
For the molecule B16, the binding signal was 0.000376 KA relative to UGCAUGU.
Regarding B17, the binding signal is 0.014 KA relative to UGCAUGU.
The figure for B18 is 0.00194 KA relative to UGCAUGU; for B19 it is 0.00563 KA relative to UGCAUGU; for B20 it is 0.00941 KA relative to UGCAUGU.
The value for B21 was 0.00643 KA relative to UGCAUGU; that for B22 was 0.00809 KA relative to UGCAUGU.
For the molecule B23, the binding signal is 0.0152 KA relative to UGCAUGU.
The value for B24 was 0.00231 KA relative to UGCAUGU.
The value for B25 was 0.0106 KA relative to UGCAUGU; that for B26 was 0.018 KA relative to UGCAUGU; that for B27 was 0.0104 KA relative to UGCAUGU.
The value for B28 was 0.0115 KA relative to UGCAUGU.
With B29, the binding signal is 0.00801 KA relative to UGCAUGU.
As to B30, the binding signal is 0.00766 KA relative to UGCAUGU.
B31: the binding signal is 0.01 KA relative to UGCAUGU.

The values are drawn from article PMC9911399, “Two distinct binding modes provide the RNA-binding protein RbFox with extraordinary sequence specificity”.
